B1: PhoQ; a variant is named by its letters at X, in order, P23837 (parent)
chain: MKKLLRLFFPLSLRVRFLLATAAVVLVLSLAYGMVALIGYSVSFDKTTFRLLRGESNLFYTLAKWENNKLHVELPENIDKQSPTMTLIYDENGQLLWAQRDVPWLMKMIQPDWLKSNGFHEIEADVNDTSLLLSGDHSIQQQLQEVREDDDDAEMTHSVAVNVYPATSRMPKLTIVVVDTIPVELKSSYMVWSWFIYVLSANLLLVIPLLWVAAWWSLRPIEALAKEVRELEEHNRELLNPATTRELTSLVRNLNRLLKSERERYDKYRTTLTDLTHSLKTPLXXLQXXLRSLRSEKMSVSDAEPVMLEQISRISQQIGYYLHRASMRGGTLLSRELHPVAPLLDNLTSALNKVYQRKGVNISLDISPEISFVGEQNDFVEVMGNVLDNACKYCLEFVEISARQTDEHLYIVVEDDGPGIPLSKREVIFDRGQRVDTLRPGQGVGLAVAREITEQYEGKIVAGESMLGGARMEVIFGRQHSAPKDE

For 84 variants, enrichment ratio results are on record in a collection of fitness landscapes (doi:10.1126/science.1257360).

This is one part of the list. A value given as a limit tells only on which side of the number the result lay.

This assay covers variants of B1. Nature of the assay: enrichment ratio after two sorts for PhoP signalling (ratio (wild type AVST 3.29)); higher = more functional. The conditions noted are these: with PhoP (E. coli).
Regarding HMCP, the enrichment ratio was at most 0.25.

Turning to RQLG, the enrichment ratio is at most 0.25.

As to NPII, the enrichment ratio is at most 0.25.

Consider WPWH, for which the enrichment ratio is at most 0.25.

With RLSA, the enrichment ratio was at most 0.25.

As to ALWN, the enrichment ratio is at most 0.25.

On to EVLF, for which the enrichment ratio is at most 0.25.

For the variant DRAG, the enrichment ratio was at most 0.25.

As to QCFG, the enrichment ratio was at most 0.25.

NQIR: the enrichment ratio is at most 0.25.

ICVA: the enrichment ratio was at most 0.25.

For the variant HAVE, the enrichment ratio was at most 0.25.

Regarding MMTD, the enrichment ratio was at most 0.25.

For AVSY, the enrichment ratio came out at 9.25.

Turning to NHRD, the enrichment ratio came out at 1.6.

In the case of TQQS, the enrichment ratio was found to be 3.45.

Take KTIE: the enrichment ratio is at most 0.25.

In the case of QLKI, the enrichment ratio was at most 0.25.

For the variant QVDG, the enrichment ratio turned out to be 30.4.

LGCC: the enrichment ratio is at most 0.25.

As to AWDW, the enrichment ratio is at most 0.25.

For FQDF, the enrichment ratio was at most 0.25.

As to DHSD, the enrichment ratio is at most 0.25.

On to FNAN, for which the enrichment ratio was at most 0.25.

On to PPER, for which the enrichment ratio was at most 0.25.

For NWCS, the enrichment ratio was at most 0.25.

In the case of KVLP, the enrichment ratio was at most 0.25.

Regarding PKFR, the enrichment ratio was at most 0.25.

On to YMDS, for which the enrichment ratio was at most 0.25.

For the variant AWHQ, the enrichment ratio is at most 0.25.

Regarding KYAK, the enrichment ratio was at most 0.25.

As to KQPL, the enrichment ratio was at most 0.25.

Turning to FGHG, the enrichment ratio was at most 0.25.

For DCCR, the enrichment ratio is at most 0.25.

Regarding PIDA, the enrichment ratio was at most 0.25.

On to QIAL, for which the enrichment ratio is 4.65.

With LELY, the enrichment ratio was at most 0.25.

For NGSW, the enrichment ratio is at most 0.25.

On to LLSF, for which the enrichment ratio is at most 0.25.

As for KYDY, the enrichment ratio is at most 0.25.

As for KSEN, the enrichment ratio is at most 0.25.

Take VIRI: the enrichment ratio is at most 0.25.

For the variant DAVA, the enrichment ratio was at most 0.25.

Take THTF: the enrichment ratio came to 0.991.

For the variant WQGY, the enrichment ratio was at most 0.25.

In the case of SHEL, the enrichment ratio is at most 0.25.

Regarding QIIS, the enrichment ratio was at most 0.25.

Regarding YFGS, the enrichment ratio was at most 0.25.

For YYWY, the enrichment ratio was at most 0.25.

HMES: the enrichment ratio was at most 0.25.

VLRG: the enrichment ratio was at most 0.25.

For the variant WILM, the enrichment ratio was at most 0.25.

Consider IFLN, for which the enrichment ratio was at most 0.25.

As to MDVV, the enrichment ratio was at most 0.25.

As for ACTY, the enrichment ratio amounted to 3.59.

In the case of VDAF, the enrichment ratio was at most 0.25.

RTLW: the enrichment ratio is at most 0.25.

Take GAIP: the enrichment ratio was at most 0.25.

In the case of RYVE, the enrichment ratio is at most 0.25.

For the variant FYVC, the enrichment ratio is at most 0.25.

For YYVG, the enrichment ratio was 0.542.

Consider LKSE, for which the enrichment ratio was at most 0.25.

In the case of MPAS, the enrichment ratio was at most 0.25.

For YKFA, the enrichment ratio was at most 0.25.

On to HKPE, for which the enrichment ratio is at most 0.25.

Regarding IHSI, the enrichment ratio was at most 0.25.

MHLQ: the enrichment ratio was at most 0.25.

Take SKHD: the enrichment ratio is at most 0.25.

For GMWL, the enrichment ratio is at most 0.25.

In the case of PADA, the enrichment ratio is at most 0.25.

For HTWM, the enrichment ratio was at most 0.25.

Consider RRHN, for which the enrichment ratio was at most 0.25.

In the case of HNIP, the enrichment ratio was at most 0.25.

As to PAAQ, the enrichment ratio is at most 0.25.

IIGK: the enrichment ratio was at most 0.25.

Regarding KVGD, the enrichment ratio is at most 0.25.

Regarding RSED, the enrichment ratio is at most 0.25.

As to QITD, the enrichment ratio is at most 0.25.

Consider YNQY, for which the enrichment ratio was at most 0.25.

As to AQAI, the enrichment ratio was 4.81.

Consider NEPL, for which the enrichment ratio was at most 0.25.

As for LIVY, the enrichment ratio is at most 0.25.

On to QQYS, for which the enrichment ratio turned out to be 6.64.

Take PRCY: the enrichment ratio was at most 0.25.
